Results on 25 molecules are retold here after the supplement of paper PMC4604168 (melanoma cell lines).

The list shows a part of the results. Repeats are few or missing, and single values can be far off.
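Also: cells treated in 1,536-well plates, then fixed and DAPI-stained, with nuclei counted from automated high-throughput microscope images.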

The test system of this test is A375. The test is described as follows: cell count relative to DMSO control; melanoma cells; higher = more viable cells. The settings on record: library dose: standard library concentration; 72 h.
`O=C(O)[C@@H]1[O][Sb](=[O])([O][Sb]2(=[O])[O][C@H]([C@H](O)CO)[C@H](O)[C@H](C(=O)O)[O]2)[O][C@H]([C@H](O)CO)[C@@H]1O` (stereo not given in full) [stibogluconate] + O=S(=O)(c1ccccc1)N(CC(F)(F)F)c1ccc(C(O)(C(F)(F)F)C(F)(F)F)cc1 [T0901317] (first compound 10 µM, partner dose 7 µM): the cell count is 111%.

Take `O=C(O)c1ccc2c(c1)nc(Nc1cccc(Cl)c1)c1ccncc12` + C[C@]1(c2nc3c(C(N)=O)cccc3[nH]2)CCCN1 [Veliparib] (first compound 2 µM, partner dose 7 µM): the cell count was found to be 68.6%.

For `O=C(O)c1ccc2c(c1)nc(Nc1cccc(Cl)c1)c1ccncc12` + O=C(O)c1ccc(-c2c[nH]c3ncc(-c4ccccc4)cc23)cc1C1CCCC1 [GSK650394] (first compound 2 µM, partner dose 0.8 µM), the cell count stood at 91.3%.

With `O=C(Nc1cc(C(F)(F)F)cc(C(F)(F)F)c1)c1cc(Cl)ccc1O` + CCCCCCCCc1ccc(CCC(N)(CO)CO)cc1 [fingolimod] (first compound 0.08 µM, partner dose 10 µM), the cell count is 59.9%.

Consider `O=C(Nc1cc(C(F)(F)F)cc(C(F)(F)F)c1)c1cc(Cl)ccc1O` + C=C(c1ccc(C(=O)O)cc1)c1cc2c(cc1C)C(C)(C)CCC2(C)C [Bexarotene] (first compound 0.08 µM, partner dose 10 µM), for which the cell count came out at 102%.

`O=C(Nc1cc(C(F)(F)F)cc(C(F)(F)F)c1)c1cc(Cl)ccc1O` + CC(C)C[C@H](NC(=O)[C@H](Cc1ccccc1)NC(=O)c1cnccn1)B(O)O [Bortezomib] (first compound 0.08 µM, partner dose 0.005 µM): the cell count is 60.4%.

In turn, `O=C(O)[C@@H]1[O][Sb](=[O])([O][Sb]2(=[O])[O][C@H]([C@H](O)CO)[C@H](O)[C@H](C(=O)O)[O]2)[O][C@H]([C@H](O)CO)[C@@H]1O` (stereo not given in full) [stibogluconate] + COc1cc2c(Oc3ccc4[nH]c(C)cc4c3F)ncnc2cc1OCCCN1CCCC1 [cediranib] (first compound 10 µM, partner dose 2 µM) yielded a cell count of 142%.

With `O=C(Nc1cc(C(F)(F)F)cc(C(F)(F)F)c1)c1cc(Cl)ccc1O` + CC1(C)NC(=O)N(c2ccc([N+](=O)[O-])c(C(F)(F)F)c2)C1=O [nilutamide] (first compound 0.08 µM, partner dose 5 µM), the cell count came out at 97.8%.

As to `O=C(Nc1cc(C(F)(F)F)cc(C(F)(F)F)c1)c1cc(Cl)ccc1O` + C[C@]1(O)C[C@@H](c2nc(-c3ccc4ccc(-c5ccccc5)nc4c3)c3c(N)nccn32)C1 [OSI906] (first compound 0.08 µM, partner dose 2 µM), the cell count came to 89.3%.

As to `Cn1nnc2c(C(N)=O)ncn2c1=O` [temozolomide] + CC1(C)NC(=O)N(c2ccc([N+](=O)[O-])c(C(F)(F)F)c2)C1=O [nilutamide] (first compound 10 µM, partner dose 5 µM), the cell count is 97.5%.

Take `O=C(O)[C@@H]1[O][Sb](=[O])([O][Sb]2(=[O])[O][C@H]([C@H](O)CO)[C@H](O)[C@H](C(=O)O)[O]2)[O][C@H]([C@H](O)CO)[C@@H]1O` (stereo not given in full) [stibogluconate] + COc1cc2ncnc(Nc3ccc(Oc4ccccc4)cc3)c2cc1OC [SrcI1] (first compound 10 µM, partner dose 10 µM): the cell count is 127%.

In turn, `O=C(Nc1cc(C(F)(F)F)cc(C(F)(F)F)c1)c1cc(Cl)ccc1O` + CN1CCN(c2ccc3nc(-c4c(N)c5c(F)cccc5[nH]c4=O)[nH]c3c2)CC1 [Dovitinib] (first compound 0.08 µM, partner dose 0.5 µM) returned a cell count of 50.5%.

With `O=C(O)[C@@H]1[O][Sb](=[O])([O][Sb]2(=[O])[O][C@H]([C@H](O)CO)[C@H](O)[C@H](C(=O)O)[O]2)[O][C@H]([C@H](O)CO)[C@@H]1O` (stereo not given in full) [stibogluconate] + Cc1ccc(NC(=O)c2cccc(N(C)C)c2)cc1NC(=O)c1ccc(O)cc1 [ZM336372] (first compound 10 µM, partner dose 10 µM), the cell count turned out to be 112%.

Consider `O=C(O)c1ccc2c(c1)nc(Nc1cccc(Cl)c1)c1ccncc12` + C#Cc1cccc(Nc2ncnc3cc(OCCOC)c(OCCOC)cc23)c1 [erlotinib] (first compound 2 µM, partner dose 4 µM), for which the cell count turned out to be 63.5%.

`Cc1cc(N2CCOCC2)cc2[nH]c(-c3c(NC[C@@H](O)c4cccc(Cl)c4)cc[nH]c3=O)nc12` + CN(C)S(=O)(=O)c1ccc2c(c1)/C(=C/c1cc3c([nH]1)CCCC3)C(=O)N2 [SU6656] (first compound 1 µM, partner dose 2 µM): the cell count amounted to 124%.

`O=C(Nc1cc(C(F)(F)F)cc(C(F)(F)F)c1)c1cc(Cl)ccc1O` + C[C@@H](N)c1ccc(C(=O)Nc2ccnc3[nH]ccc23)cc1 [RKI983] (first compound 0.08 µM, partner dose 2 µM) gave a cell count of 66.5%.

Molecule `O=C(O)[C@@H]1[O][Sb](=[O])([O][Sb]2(=[O])[O][C@H]([C@H](O)CO)[C@H](O)[C@H](C(=O)O)[O]2)[O][C@H]([C@H](O)CO)[C@@H]1O` (stereo not given in full) [stibogluconate] + CC(=O)c1c(C)c2cnc(Nc3ccc(N4CCNCC4)cn3)nc2n(C2CCCC2)c1=O [palbociclib] (first compound 10 µM, partner dose 0.2 µM) displayed a cell count of 80.4%.

Take `O=C(Nc1cc(C(F)(F)F)cc(C(F)(F)F)c1)c1cc(Cl)ccc1O` + COc1cc2c(Oc3ccc4[nH]c(C)cc4c3F)ncnc2cc1OCCCN1CCCC1 [cediranib] (first compound 0.08 µM, partner dose 2 µM): the cell count was found to be 139%.

`Cn1nnc2c(C(N)=O)ncn2c1=O` [temozolomide] + OCCn1cc(-c2cnc3nnn(Cc4ccc5ncccc5c4)c3n2)cn1 [PF04217903] (first compound 10 µM, partner dose 5 µM) yielded a cell count of 99.7%.

Molecule `O=C(O)[C@@H]1[O][Sb](=[O])([O][Sb]2(=[O])[O][C@H]([C@H](O)CO)[C@H](O)[C@H](C(=O)O)[O]2)[O][C@H]([C@H](O)CO)[C@@H]1O` (stereo not given in full) [stibogluconate] + CN(C)S(=O)(=O)c1ccc2c(c1)/C(=C/c1cc3c([nH]1)CCCC3)C(=O)N2 [SU6656] (first compound 10 µM, partner dose 2 µM) had a cell count of 106%.

In turn, `O=C(O)[C@@H]1[O][Sb](=[O])([O][Sb]2(=[O])[O][C@H]([C@H](O)CO)[C@H](O)[C@H](C(=O)O)[O]2)[O][C@H]([C@H](O)CO)[C@@H]1O` (stereo not given in full) [stibogluconate] + C=CCn1c(=O)c2cnc(Nc3ccc(N4CCN(C)CC4)cc3)nc2n1-c1cccc(C(C)(C)O)n1 [MK1775] (first compound 10 µM, partner dose 0.1 µM) yielded a cell count of 54.5%.

Regarding `O=C(Nc1cc(C(F)(F)F)cc(C(F)(F)F)c1)c1cc(Cl)ccc1O` + Cn1cnc2c(F)c(Nc3ccc(Br)cc3Cl)c(C(=O)NOCCO)cc21 [selumetinib] (first compound 0.08 µM, partner dose 0.075 µM), the cell count was determined as 83.5%.

Regarding `O=C(O)[C@@H]1[O][Sb](=[O])([O][Sb]2(=[O])[O][C@H]([C@H](O)CO)[C@H](O)[C@H](C(=O)O)[O]2)[O][C@H]([C@H](O)CO)[C@@H]1O` (stereo not given in full) [stibogluconate] + Cn1cncc1[C@@](N)(c1ccc(Cl)cc1)c1ccc2c(c1)c(-c1cccc(Cl)c1)cc(=O)n2C [tipifarnib] (first compound 10 µM, partner dose 0.05 µM), the cell count is 119%.

Take `O=C(Nc1cc(C(F)(F)F)cc(C(F)(F)F)c1)c1cc(Cl)ccc1O` + CC(=O)c1c(C)c2cnc(Nc3ccc(N4CCNCC4)cn3)nc2n(C2CCCC2)c1=O [palbociclib] (first compound 0.08 µM, partner dose 0.2 µM): the cell count turned out to be 49.9%.

For the molecule `O=C(O)[C@@H]1[O][Sb](=[O])([O][Sb]2(=[O])[O][C@H]([C@H](O)CO)[C@H](O)[C@H](C(=O)O)[O]2)[O][C@H]([C@H](O)CO)[C@@H]1O` (stereo not given in full) [stibogluconate] + COCC[n+]1c2c(n(Cc3cnccn3)c1C)C(=O)c1ccccc1C2=O [YM155] (first compound 10 µM, partner dose 0.002 µM), the cell count came out at 81%.
